# Source: PubChem BioAssay (NCATS)
# “And” between values parts separate entries of the source, which are not always exact repeats. Equal values may be shown once. The shares of active, inactive and inconclusive entries below differ from those in the screen. Where the call is inconclusive, the potency comes from a doubtful curve fit. The source made the active and inactive calls. The call rests on the fitted dose curve; in most records, active means well fitted curve in the direction sought with a large enough effect; inconclusive means small, poorly fitted or top-dose-only effect, or another doubt; inactive means no such curve, though single readings can be large; an effect the other way counts as inactive or inconclusive.
# Experiment: Viability qHTS for spleen associated tyrosine kinase inhibitor (SYKi) drug resistant MV4-11 cells (AID 1963824); further: nearly all actives have a fitted effect of over 35% in size
# Conditions: SYKi-resistant MV4-11 viability, CellTiter-Glo, 72 h; series mostly up to 45 µM; viability, % of control: at the top concentration
# Outline: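 SYK inhibitor-resistant MV4-11 AML cells, 500 per well, added to predispensed compounds and incubated 72 hr at 37 C, 5% CO2. Viability measured by CellTiter-Glo luminescence after 10 min at room temperature.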
# Potency means the concentration at half of the fitted maximal effect; tags describe the fitted curve by direction and shape.
SMILES,Potency,"viability, % of control"
Clc1ccc(Cn2c(CN3CCCC3)nc3ccccc32)cc1,"inconclusive: 10 µM [cytotoxic, partial curve]",–
COCc1c(C(C)C)nc(C(C)C)c(/C=C/[C@@H](O)C[C@@H](O)CC(=O)O)c1-c1ccc(F)cc1,"inconclusive: 0.106 µM [cytotoxic, full curve]",–
CO/N=C(/C(=O)N[C@@H]1C(=O)N2C(C(=O)O)=C(Cn3nnc(C)n3)CS[C@H]12)c1csc(N)n1,inconclusive: 0.0009 µM,–
CCCCCC[C@@H](CCC)C(=O)O,–,inactive: 88.2%
CS[C@H]1SC[C@@H]2C(=O)N(C)[C@H](C(C)C)C(=O)OC[C@H](NC(=O)c3cnc4ccccc4n3)C(=O)N[C@H](C)C(=O)N(C)[C@H]1C(=O)N(C)[C@H](C(C)C)C(=O)OC[C@H](NC(=O)c1cnc3ccccc3n1)C(=O)N[C@H](C)C(=O)N2C,"inconclusive: 0.0013 µM [cytotoxic, full curve]",–
CCCCCC1Nc2cc(C(F)(F)F)c(S(N)(=O)=O)cc2S(=O)(=O)N1 (stereo not drawn),inconclusive: 0.0009 µM,–
O=C(c1ccc(F)cc1)C1CCN(CCn2c(=S)[nH]c3ccccc3c2=O)CC1,"inconclusive: 29.9 µM [cytotoxic, single point]",–
O=C(CCCN1CCC(O)(c2ccc(Br)cc2)CC1)c1ccc(F)cc1,"inconclusive: 11.9 µM [cytotoxic, partial curve]",–
O=C(Nc1ccc(C(=O)O)c(O)c1)c1ccccc1,–,inactive: 78.4%
CN(C)CCCN1c2ccccc2CCc2ccccc21,"inconclusive: 23.7 µM [cytotoxic, partial curve, poor fit]",–
Cc1onc(-c2ccccc2)c1-c1ccc(S(N)(=O)=O)cc1,"inconclusive: 10.6 µM [cytotoxic, partial curve]",–
Cc1ccc(Nc2nnc(Cc3ccncc3)c3ccccc23)cc1Br,active: 10.5 µM,–
C[C@@H](O)[C@H](N)C(=O)O,–,inactive: 49.8% [at 17.3 µM]
COc1ccc(S(=O)(=O)Nc2cc(-c3csc(C#N)c3)ccc2C)cc1,active: 0.0934 µM,–
C/C=C1\[C@H]2C=C(C)C[C@]1(N)c1ccc(=O)[nH]c1C2,–,inactive: 96.7%
CCCCOc1cc(C(=O)NCCN(CC)CC)c2ccccc2n1,"inconclusive: 21.1 µM [cytotoxic, single point]",–
Cc1cc(NS(=O)(=O)c2ccc(N)cc2)no1,"inconclusive: 10.6 µM [cytotoxic, partial curve, poor fit]",–
NCCNc1cccc2ccccc12,"inconclusive: 4.73 µM [cytotoxic, partial curve]",–

# Experiment: Cellular viability qHTS for adrenocortical cancer (ACC) cell line SW-13 (AID 1963989); further: nearly all actives have a fitted effect of over 65% in size;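 on activity (max response): cells grown in serum-free medium with ITS supplement; on the % scale 0 is the no-effect control and ±100 the full control effect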
# Conditions: SW-13 ACC cells viability, CellTiter-Glo, 48 h; activity (max response): hits give low values
# Outline: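 Compound titrations (up to 46 uM final, in DMSO) were applied to SW-13 cells for 48 h at 37C/5% CO2. Reading used CellTiter-Glo after 20 min at room temperature; fitted curves yielded IC50 and efficacy.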
SMILES,Potency,activity (max response)
CCCCC(CC)CN1CN(CC(CC)CCCC)CC(C)(N)C1 (stereo not drawn),"inconclusive: 29.1 µM [cytotoxic, single point]",–
CC1CC(OC(=O)c2ccccc2O)CC(C)(C)C1 (stereo not drawn),–,inactive: 10.4%
O=C(CCCN1CCN(c2ccccn2)CC1)c1ccc(F)cc1,–,inactive: -12.5%
COc1ncc(Nc2ncc([C@H](C)N3CCN(S(C)(=O)=O)CC3)cc2-c2nc(C)nc(N)n2)cc1F,–,inactive: -5.36%
NC(N)=N/N=C/c1c(Cl)cccc1Cl,"inconclusive: 20.6 µM [cytotoxic, partial curve, poor fit]",–
Cc1onc(-c2ccccc2)c1C(=O)Cl,–,inactive: 12.7%
CN1CCC(N(Cc2cccs2)c2ccccc2)CC1,–,inactive: 6.02%
CC(C)(O)c1ccccc1CC[C@@H](SCC1(CC(=O)O)CC1)c1cccc(/C=C/c2ccc3ccc(Cl)cc3n2)c1,–,inactive: 11.5%
Cc1c(C(=O)N2CCOc3ccc(-c4ccc(N)nc4)cc3C2)ccc(S(C)(=O)=O)c1F,"inconclusive: 2.82 µM [cytotoxic, full curve]",–
CCC(C(=O)NC(=O)NC(C)=O)c1ccccc1 (stereo not drawn),–,inactive: -1.46%
O=C1NCCN1CCN1CCC(c2cn(-c3ccc(F)cc3)c3ccc(Cl)cc23)CC1,active: 10.3 µM,–
CCOC(=O)N1CCC(Nc2ccc(Cl)cc2N)CC1,"inconclusive: 20.6 µM [cytotoxic, single point]",–
Cc1c(-c2ccc(-c3ccccc3F)cc2)nc2ccc(F)cc2c1C(=O)O,"inconclusive: 0.178 µM [cytotoxic, full curve]",–
CN1CCN(c2ccc(Nc3ncc4cc(C#N)c(=O)n(C5CCCC5)c4n3)cc2)CC1,"inconclusive: 12.6 µM [cytotoxic, partial curve, poor fit]",–
CCOCOC[C@H](C[C@H](C)C(=O)NO)NC(=O)c1ccc(Oc2ccccc2)cc1,–,inactive: -8.03%
Cc1[nH]nc2ncc(C(=O)N3CCC[C@H]3c3ccc(Cl)cc3)cc12,–,inactive: -6.61%
CCCCCC(=O)O[C@]1(C(C)=O)CC[C@H]2[C@@H]3CCC4=CC(=O)CC[C@]4(C)[C@H]3CC[C@@]21C,"inconclusive: 20.6 µM [cytotoxic, single point]",–
CN(Cc1ccccc1)C(=O)c1ccc(S(=O)(=O)Nc2ccccc2)cc1,"inconclusive: 28.2 µM [cytotoxic, partial curve]",–
CCOC(=O)C1=C(C)NC(C)=C(C(=O)OC)C1c1cccc([N+](=O)[O-])c1 (stereo not drawn),"inconclusive: 18.4 µM [cytotoxic, partial curve, poor fit]",–
CCCc1ccc(OCC(=O)N2CCN(C(=O)COc3ccc(CCC)cc3OC)CC2)c(OC)c1,–,inactive: 4.95%

SMILES,Potency,activity (max response)
C[C@@H](c1ccc2nccn2c1)n1nnc2ncc(-c3cnn(C)c3)nc21,"inconclusive: 15.8 µM [cytotoxic, partial curve]",–
Nc1c(NC/C=C\COc2cc(CN3CCCCC3)ccn2)c(=O)c1=O,–,inactive: 4.55%
Clc1ccc(Cn2c(CN3CCCC3)nc3ccccc32)cc1,"inconclusive: 18.4 µM [cytotoxic, single point] and inconclusive: 31.6 µM [cytotoxic, single point]",–
COCc1c(C(C)C)nc(C(C)C)c(/C=C/[C@@H](O)C[C@@H](O)CC(=O)O)c1-c1ccc(F)cc1,active: 2.59 µM,–
CO/N=C(/C(=O)N[C@@H]1C(=O)N2C(C(=O)O)=C(Cn3nnc(C)n3)CS[C@H]12)c1csc(N)n1,"inconclusive: 18.4 µM [cytotoxic, single point]",–
CCCCCC[C@@H](CCC)C(=O)O,–,inactive: 6.05%
CS[C@H]1SC[C@@H]2C(=O)N(C)[C@H](C(C)C)C(=O)OC[C@H](NC(=O)c3cnc4ccccc4n3)C(=O)N[C@H](C)C(=O)N(C)[C@H]1C(=O)N(C)[C@H](C(C)C)C(=O)OC[C@H](NC(=O)c1cnc3ccccc3n1)C(=O)N[C@H](C)C(=O)N2C,–,inconclusive: -98.3%
CCCCCC1Nc2cc(C(F)(F)F)c(S(N)(=O)=O)cc2S(=O)(=O)N1 (stereo not drawn),–,inactive: 4.72%
O=C(c1ccc(F)cc1)C1CCN(CCn2c(=S)[nH]c3ccccc3c2=O)CC1,"inconclusive: 25.9 µM [cytotoxic, partial curve, poor fit]",–
O=C(CCCN1CCC(O)(c2ccc(Br)cc2)CC1)c1ccc(F)cc1,"inconclusive: 23.1 µM [cytotoxic, single point]",–
O=C(Nc1ccc(C(=O)O)c(O)c1)c1ccccc1,–,inactive: 1.55%
CN(C)CCCN1c2ccccc2CCc2ccccc21,"inconclusive: 20.6 µM [cytotoxic, partial curve, poor fit]",–
Cc1onc(-c2ccccc2)c1-c1ccc(S(N)(=O)=O)cc1,–,inactive: -10.6% and inactive: -23.5%
Cc1ccc(Nc2nnc(Cc3ccncc3)c3ccccc23)cc1Br,"inconclusive: 12.6 µM [cytotoxic, partial curve]",–
C[C@@H](O)[C@H](N)C(=O)O,–,inactive: 12.2%
COc1ccc(S(=O)(=O)Nc2cc(-c3csc(C#N)c3)ccc2C)cc1,active: 0.0631 µM,–
C/C=C1\[C@H]2C=C(C)C[C@]1(N)c1ccc(=O)[nH]c1C2,–,inactive: 12.5%
CCCCOc1cc(C(=O)NCCN(CC)CC)c2ccccc2n1,"inconclusive: 23.1 µM [cytotoxic, single point]",–
Cc1cc(NS(=O)(=O)c2ccc(N)cc2)no1,–,inactive: 13.2%
NCCNc1cccc2ccccc12,"inconclusive: 18.4 µM [cytotoxic, partial curve, poor fit]",–
